# In the supplement of paper PMC10037445:
# In all, about 2,900 compounds were measured (“NF-kB SEAP reporter activity, fold change vs agonist alone”: median about 0.99, highest 2% from about 2.6 on). Some of the results follow.
# Tests used:
# [1] = system: RAW-Dual; assay: NF-kB SEAP reporter activity, fold change vs agonist alone; cytotoxicity flag (confluency mask): not cytotoxic; higher = enhanced NF-kB activity
# How it was run: (§1)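 RAW-Dual macrophages (50,000 cells/well in DMEM, 384-well plates) received 50 nL of library stock by pin tool, then a PRR agonist 1 h later, and were kept at 37 °C, 5% CO2. After 20 hours, supernatant was read for IRF by QuantiLuc luminescence and for NF-κB by QuantiBlue absorbance at 620 nm. Reporter activity is fold change over agonist-alone wells. Cytotoxic wells had IncuCyte confluency below 70% of agonist controls in both mask sets.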
# [2] = system: RAW-Dual; assay: NF-kB SEAP reporter activity, fold change vs agonist alone; higher = enhanced NF-kB activity; details: cytotoxicity flag (confluency mask): not cytotoxic
# How it was run: as §1
# [3] = agonist: ODN 1826 (TLR9) 0.5 ug/mL
# [4] = agonist: Pam2CSK4 (TLR2/6) 0.1 ug/mL
# [5] = agonist: Pam3CSK4 (TLR2/1) 0.1 ug/mL
# [6] = library stock concentration (final ~1000-fold dilution): 10 mM, agonist: Imiquimod (TLR7) […]
# [7] = library stock concentration (final ~1000-fold dilution): 10 mM, agonist: MPLA (TLR4) […]
smiles,measurement,setting,value
O=C(O)Cn1c2c(c3cc(F)ccc31)CN(C(=O)c1cccc3ccccc13)CC2 (library stock concentration (final ~1000-fold dilution): 10 mM),NF-kB SEAP reporter activity,[1]; agonist: LPS (TLR4) 0.1 ug/mL,0.974
same,NF-kB SEAP reporter activity,[1]; [3],0.982
same,NF-kB SEAP reporter activity,[1]; [4],1.03
same,NF-kB SEAP reporter activity,[1]; [5],0.899
O=C(O)Cn1c2c(c3cc(F)ccc31)CN(C(=O)c1cccc3ccccc13)CC2,NF-kB SEAP reporter activity,[2]; [6],1.15
same,NF-kB SEAP reporter activity,[2]; [7],1.09
Nc1nc(F)nc2c1ncn2C1OC(CO)C(O)C1O (stereo unspecified),NF-kB SEAP reporter activity,[2]; [6],0.92
same,NF-kB SEAP reporter activity,[2]; [7],0.844
Nc1nc(F)nc2c1ncn2C1OC(CO)C(O)C1O (stereo unspecified) (library stock concentration (final ~1000-fold dilution): 10 mM),NF-kB SEAP reporter activity,[1]; agonist: LPS (TLR4) 0.1 ug/mL,1.1
same,NF-kB SEAP reporter activity,[1]; [3],1.03
same,NF-kB SEAP reporter activity,[1]; [4],1.06
same,NF-kB SEAP reporter activity,[1]; [5],1.22
CCN(CCO)CCCC(C)Nc1ccnc2cc(Cl)ccc12.O=S(=O)(O)O (stereo unspecified) (library stock concentration (final ~1000-fold dilution): 10 mM water),NF-kB SEAP reporter activity,[1]; agonist: LPS (TLR4) 0.1 ug/mL,1.41
same,NF-kB SEAP reporter activity,[1]; [3],0.252
same,NF-kB SEAP reporter activity,[1]; [4],0.864
same,NF-kB SEAP reporter activity,[1]; [5],0.763
CCN(CCO)CCCC(C)Nc1ccnc2cc(Cl)ccc12.O=S(=O)(O)O (stereo unspecified),NF-kB SEAP reporter activity,"[2]; library stock concentration (final ~1000-fold dilution): 10 mM water, agonist: Imiquimod (TLR7) […]",0.389
same,NF-kB SEAP reporter activity,"[2]; library stock concentration (final ~1000-fold dilution): 10 mM water, agonist: MPLA (TLR4) […]",1.3
CC(=O)OC12COC1CC(O)C1(C)C(=O)C(O)C3=C(C)C(OC(=O)C(O)C(NC(=O)OC(C)(C)C)c4ccccc4)CC(O)(C(OC(=O)c4ccccc4)C21)C3(C)C.O.O.O (stereo unspecified) (library stock concentration (final ~1000-fold dilution): 10 mM),NF-kB SEAP reporter activity,[1]; agonist: LPS (TLR4) 0.1 ug/mL,1.26
same,NF-kB SEAP reporter activity,[1]; [3],0.91
same,NF-kB SEAP reporter activity,[1]; [4],0.697
same,NF-kB SEAP reporter activity,[1]; [5],0.713
CC(=O)OC12COC1CC(O)C1(C)C(=O)C(O)C3=C(C)C(OC(=O)C(O)C(NC(=O)OC(C)(C)C)c4ccccc4)CC(O)(C(OC(=O)c4ccccc4)C21)C3(C)C.O.O.O (stereo unspecified),NF-kB SEAP reporter activity,[2]; [6],1.07
same,NF-kB SEAP reporter activity,[2]; [7],1.23
COc1cccc2cc(-c3nc(C4CCC(C(=O)O)CC4)n4ncnc(N)c34)[nH]c12 (stereo unspecified) (library stock concentration (final ~1000-fold dilution): 10 mM),NF-kB SEAP reporter activity,[1]; agonist: LPS (TLR4) 0.1 ug/mL,1.48
same,NF-kB SEAP reporter activity,[1]; [3],0.418
same,NF-kB SEAP reporter activity,[1]; [4],0.513
same,NF-kB SEAP reporter activity,[1]; [5],0.584
COc1cccc2cc(-c3nc(C4CCC(C(=O)O)CC4)n4ncnc(N)c34)[nH]c12 (stereo unspecified),NF-kB SEAP reporter activity,[2]; [6],1.23
same,NF-kB SEAP reporter activity,[2]; [7],1.25
Nc1nc2cc(-c3ccc4ncc(C(=O)N5CCOCC5)n4c3)ccc2o1 (library stock concentration (final ~1000-fold dilution): 10 mM),NF-kB SEAP reporter activity,[1]; agonist: LPS (TLR4) 0.1 ug/mL,0.841
same,NF-kB SEAP reporter activity,[1]; [3],1.02
same,NF-kB SEAP reporter activity,[1]; [4],0.774
same,NF-kB SEAP reporter activity,[1]; [5],0.811
Nc1nc2cc(-c3ccc4ncc(C(=O)N5CCOCC5)n4c3)ccc2o1,NF-kB SEAP reporter activity,[2]; [6],1.09
same,NF-kB SEAP reporter activity,[2]; [7],1.09
CCC(C(=O)O)c1ccc(N2Cc3ccccc3C2=O)cc1 (stereo unspecified),NF-kB SEAP reporter activity,[2]; [7],1.06
CCC(C(=O)O)c1ccc(N2Cc3ccccc3C2=O)cc1 (stereo unspecified) (library stock concentration (final ~1000-fold dilution): 10 mM),NF-kB SEAP reporter activity,[1]; agonist: LPS (TLR4) 0.1 ug/mL,1.46
same,NF-kB SEAP reporter activity,[1]; [3],0.943
same,NF-kB SEAP reporter activity,[1]; [4],1.23
same,NF-kB SEAP reporter activity,[1]; [5],1.1
